Test results: article PMC9920714
Results are given in words; binding and its absence hold for the method and conditions named. For part of these data: In cells and extracts the contact can be indirect. Some results given as binding are weak or reduced against the parent protein; the word gives no strength. For part of these data: Sequences can lack the tags named with a protein.

The chains behind the UniProt entries cited, without tags or fusion partners.
UniProt Q9C9W9: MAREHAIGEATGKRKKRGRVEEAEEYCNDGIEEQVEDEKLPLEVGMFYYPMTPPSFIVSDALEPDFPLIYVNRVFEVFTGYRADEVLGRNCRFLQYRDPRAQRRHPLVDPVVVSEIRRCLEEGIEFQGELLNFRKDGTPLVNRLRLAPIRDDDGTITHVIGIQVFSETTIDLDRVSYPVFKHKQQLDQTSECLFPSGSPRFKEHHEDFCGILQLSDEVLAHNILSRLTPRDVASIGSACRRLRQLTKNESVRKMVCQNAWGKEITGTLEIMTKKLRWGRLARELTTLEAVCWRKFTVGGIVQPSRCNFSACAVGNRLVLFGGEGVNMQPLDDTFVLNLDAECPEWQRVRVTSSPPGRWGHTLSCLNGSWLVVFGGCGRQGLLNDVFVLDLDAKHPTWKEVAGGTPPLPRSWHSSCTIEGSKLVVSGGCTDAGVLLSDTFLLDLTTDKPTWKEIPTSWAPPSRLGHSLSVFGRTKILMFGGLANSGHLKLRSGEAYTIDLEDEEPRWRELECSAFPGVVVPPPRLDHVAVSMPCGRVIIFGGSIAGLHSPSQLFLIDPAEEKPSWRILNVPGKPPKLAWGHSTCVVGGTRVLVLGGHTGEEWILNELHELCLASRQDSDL

Assays:
[1] = biological target: FLAVIN-BINDING KELCH REPEAT F-BOX1 (FKF1), full length, fused to LexA in bait vector pB29 (A. thaliana) (UniProt Q9C9W9); experiment: two-hybrid; pairwise tests: FKF1 or its domains before LexA in bait vector pB29, preys after the GAL4 activation domain in pP6; diploid yeast from L40deltaGal4 and Y187; growth on -Leu -Trp -His medium
[2] = biological target: FLAVIN-BINDING KELCH REPEAT F-BOX1 (FKF1), full length, fused to LexA in bait vector pB29 (A. thaliana) (UniProt Q9C9W9); experiment: two-hybrid; genome-wide library screen (ULTImate Y2H, Hybrigenics): FKF1-LexA bait in pB29 against a random-primed cDNA library of one-week-old A. thaliana seedlings in pP6; mating of YHGX13 and L40deltaGal4; His+ colonies on medium lacking tryptophan, leucine and histidine
[3] = biological target: full length FKF1 fused to the N-terminal domain (VYNE) of the Venus protein (A. thaliana) (UniProt Q9C9W9); experiment: split reporter; BiFC with split Venus (VYNE and VYCE), transient expression in Nicotiana benthamiana leaves by Agrobacterium infiltration, fluorescence microscopy after 3-5 days
[4] = biological target: full length CERK1 fused to a split Venus domain (VYCE or VYNE) (Arabidopsis thaliana) (UniProt A8R7E6); experiment: as above
[5] = biological target: FLAVIN-BINDING KELCH REPEAT F-BOX1 (FKF1), full length, fused to LexA in bait vector pB29 (A. thaliana) (UniProt Q9C9W9); experiment: two-hybrid; yeast two-hybrid of FKF1 with JAC1 or THRUMIN1; constructs and vectors not told

B1: CHUP1 C-terminus (partial), aa707-aa937, in prey vector pP6 (domain or fragment, UniProt Q9LI74 707-937)
chain: ALGRGAGGGNKVHRAPELVEFYQSLMKRESKKEGAPSLISSGTGNSSAARNNMIGEIENRSTFLLAVKADVETQGDFVQSLATEVRASSFTDIEDLLAFVSWLDEELSFLVDERAVLKHFDWPEGKADALREAAFEYQDLMKLEKQVTSFVDDPNLSCEPALKKMYKLLEKVEQSVYALLRTRDMAISRYKEFGIPVDWLSDTGVVGKIKLSSVQLAKKYMKRVAYELDSV
Q: Which results are given for B1?
A: binding [1]: binds; binding [2]: binds

B2: CHUP1 C-terminal (aa707-aa1004) in prey vector pP6 (domain or fragment, UniProt Q9LI74 707-1004)
chain: ALGRGAGGGNKVHRAPELVEFYQSLMKRESKKEGAPSLISSGTGNSSAARNNMIGEIENRSTFLLAVKADVETQGDFVQSLATEVRASSFTDIEDLLAFVSWLDEELSFLVDERAVLKHFDWPEGKADALREAAFEYQDLMKLEKQVTSFVDDPNLSCEPALKKMYKLLEKVEQSVYALLRTRDMAISRYKEFGIPVDWLSDTGVVGKIKLSSVQLAKKYMKRVAYELDSVSGSDKDPNREFLLLQGVRFAFRVHQFAGGFDAESMKAFEELRSRAKTESGDNNNNNNNNSNEEESVN
Q: Which binding [1] does the source give for B2 here?
A: The binding was “binds”.

B3: full-length CHUP1 protein fused to the C-terminal domain (VYCE) of the Venus protein (protein, UniProt Q9LI74 1-1004)
chain: MFVRIGFVVAASIAAVTVKRLNVKPSKPSKPSDNGEGGDKEQSVDPDYNLNDKNLQEEEEEEEEEVKLINSVINQTRGSFSDYLDDDILPEFEDLLSGEIEYPLPDDDNNLEKAEKERKYEVEMAYNDGELERLKQLVKELEEREVKLEGELLEYYGLKEQESDIVELQRQLKIKTVEIDMLNITINSLQAERKKLQEELSQNGIVRKELEVARNKIKELQRQIQLDANQTKGQLLLLKQHVSSLQMKEEEAMNKDTEVERKLKAVQDLEVQVMELKRKNRELQHEKRELSIKLDSAEARIATLSNMTESDKVAKVREEVNNLKHNNEDLLKQVEGLQMNRFSEVEELVYLRWVNACLRYELRNYQTPAGKISARDLSKNLSPKSQAKAKRLMLEYAGSERGQGDTDLESNYSQPSSPGSDDFDNASMDSSTSRFSSFSKKPGLIQKLKKWGKSKDDSSVQSSPSRSFYGGSPGRLSSSMNKQRGPLESLMIRNAGESVAITTFGQVDQESPGTPETPNLPRIRTQQQASSPGEGLNSVAASFHVMSKSVDNVLDEKYPAYKDRHKLAVEREKHIKHKADQARAERFGGNVALPPKLAQLKEKRVVVPSVITATGDQSNESNESNEGKASENAATVTKMKLVDIEKRPPRVPRPPPRSAGGGKSTNLPSARPPLPGGGPPPPPPPPGGGPPPPPGGGPPPPPPPPGALGRGAGGGNKVHRAPELVEFYQSLMKRESKKEGAPSLISSGTGNSSAARNNMIGEIENRSTFLLAVKADVETQGDFVQSLATEVRASSFTDIEDLLAFVSWLDEELSFLVDERAVLKHFDWPEGKADALREAAFEYQDLMKLEKQVTSFVDDPNLSCEPALKKMYKLLEKVEQSVYALLRTRDMAISRYKEFGIPVDWLSDTGVVGKIKLSSVQLAKKYMKRVAYELDSVSGSDKDPNREFLLLQGVRFAFRVHQFAGGFDAESMKAFEELRSRAKTESGDNNNNNNNNSNEEESVN
Q: For B3, which binding [3] is on record?
A: The binding was “binds”.

B4: full length CERK1 fused to a split Venus domain (VYCE or VYNE) (receptor, UniProt A8R7E6 24-617)
chain: KCRTSCPLALASYYLENGTTLSVINQNLNSSIAPYDQINFDPILRYNSNIKDKDRIQMGSRVLVPFPCECQPGDFLGHNFSYSVRQEDTYERVAISNYANLTTMESLQARNPFPATNIPLSATLNVLVNCSCGDESVSKDFGLFVTYPLRPEDSLSSIARSSGVSADILQRYNPGVNFNSGNGIVYVPGRDPNGAFPPFKSSKQDGVGAGVIAGIVIGVIVALLLILFIVYYAYRKNKSKGDSFSSSIPLSTKADHASSTSLQSGGLGGAGVSPGIAAISVDKSVEFSLEELAKATDNFNLSFKIGQGGFGAVYYAELRGEKAAIKKMDMEASKQFLAELKVLTRVHHVNLVRLIGYCVEGSLFLVYEYVENGNLGQHLHGSGREPLPWTKRVQIALDSARGLEYIHEHTVPVYVHRDIKSANILIDQKFRAKVADFGLTKLTEVGGSATRGAMGTFGYMAPETVYGEVSAKVDVYAFGVVLYELISAKGAVVKMTEAVGEFRGLVGVFEESFKETDKEEALRKIIDPRLGDSYPFDSVYKMAELGKACTQENAQLRPSMRYIVVALSTLFSSTGNWDVGNFQNEDLVSLMSGR
Q: For B4, which binding [4] is on record?
A: The binding was “binds”.

B5: JAC1 (J-domain protein required for chloroplast accumulation response 1) (protein, UniProt Q9C9Q4 1-651)
chain: MQTLPSSETVLLGSNSAPPVLRSPGGDDVDIDFGDVFGGPPKRRSKVTSNEVTRHSFSESALRRRDVIVDVGDLLPQDEKPVFGEDTSSVRRRFTTDDFFDDIFRVNESSSLPGSRILSPAHKPESSSGTSSPSQFSLPAKATEIPTFNLAATRSLNKNKETVSSSPLSRTSSKADVVSTAKSYSDDCDDPPQVFVTGKGRQFHFSIYKWPNKGVPVVIWGSSRLSSMSKAEETTPVPLSDYRKTSVVEKLGKNEEGDGKSGLSGLKDVKKTSLKRPGVQTKEEKTETDLKSEQAFFGVSKAREANVKPLDSVESEQAFSGVSKAHEATTVKPLHSIFHEEDERQDEKIVSEREVRKGKSKAKNTRSFTEDSRTKKKSQGTKSSLDSSPIPDKSSFASSSAAPEVGKDGVKGKVSDFVKIFSKGASVGAGGESLGQSSRWRAKETPKTDIIHDGSNAKETVNIPDQQKKSTPDIPAMNRDQKPSQSTQKKDSDRESMNYKAPGDTVQEERQEPSTTHTTSEDIDEPFHVNFDVEDITQDENKMEEANKDAEEIKNIDAKIRKWSSGKSGNIRSLLSTLQYILWSGSGWKPVPLMDMIEGNAVRKSYQRALLILHPDKLQQKGASANQKYMAEKVFELLQEAWDHFNTLGPV
Q: B5 was tested. Which binding [5] did it give?
A: Its binding is “no binding”.
